# According to the supplement of paper PMC8728848:
# Some of the results follow.
# B1: SLP (Clostridium difficile), Q183M8 (protein)
# chain: MATTGTQGYTVVKNDWKKAVKQLQDGLKDNSIGKITVSFNDGVVGEVAPKSANKKADRDAAAEKLYNLVNTQLDKLGDGDYVDFSVDYNLENKIITNQADAEAIVTKLNSLNEKTLIDIATKDTFGMVSKTQDSEGKNVAATKALKVKDVATFGLKSGGSEDTGYVVEMKAGAVEDKYGKVGDSTAGIAINLPSTGLEYAGKGTTIDFNKTLKVDVTGGSTPSAVAVSGFVTKDDTDLAKSGTINVRVINAKEESIDIDASSYTSAENLAKRYVFDPDEISEAYKAIVALQNDGIESNLVQLVNGKYQVIFYPEGKRLETKSLEHHHHHH
# Experiments:
# Assay in all cases: glycan array binding signal (z-score within array); higher = stronger binding
# Settings in all cases: glycan notation: IUPAC condensed, linker removed
# [1] = target: Gal(b1-4)GlcNAc(b1-6)[Gal(b1-3)]GalNAc
# How it was run: (§1)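 Negative Z-scores can be read as non-binding. The Z-score is calculated within each array and then averaged across arrays of one protein sequence at different concentrations or buffers and across linkers. Arrays, 3228 in all, were curated from the Consortium for Functional Glycomics database and kept only where the protein sequence was available.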
# Gal3S(b1-3)GalNAc = target: Gal3S(b1-3)GalNAc
# How it was run: as §1
# Gal3S(b1-3)GlcNAc = target: Gal3S(b1-3)GlcNAc
# How it was run: as §1
# [2] = target: Gal3S(b1-3)[Fuc(a1-4)]GlcNAc
# How it was run: as §1
# Gal3S(b1-4)Glc = target: Gal3S(b1-4)Glc
# How it was run: as §1
# Gal3S(b1-4)Glc6S = target: Gal3S(b1-4)Glc6S
# How it was run: as §1
# Gal3S(b1-4)GlcNAc = target: Gal3S(b1-4)GlcNAc
# How it was run: as §1
# Gal3S(b1-4)GlcNAc6S = target: Gal3S(b1-4)GlcNAc6S
# How it was run: as §1
# [3] = target: Gal3S(b1-4)[Fuc(a1-3)]Glc
# How it was run: as §1
# [4] = target: Gal3S(b1-4)[Fuc(a1-3)]Glc6S
# How it was run: as §1
# Gal3S4S(b1-4)GlcNAc = target: Gal3S4S(b1-4)GlcNAc
# How it was run: as §1
# Gal3S6S(b1-4)GlcNAc = target: Gal3S6S(b1-4)GlcNAc
# How it was run: as §1
# Gal3S6S(b1-4)GlcNAc6S = target: Gal3S6S(b1-4)GlcNAc6S
# How it was run: as §1
# Gal4S(b1-4)GlcNAc = target: Gal4S(b1-4)GlcNAc
# How it was run: as §1
# Gal4S6S(b1-4)GlcNAc = target: Gal4S6S(b1-4)GlcNAc
# How it was run: as §1
# Gal6S(b1-4)Glc = target: Gal6S(b1-4)Glc
# How it was run: as §1
# Gal6S(b1-4)Glc6S = target: Gal6S(b1-4)Glc6S
# How it was run: as §1
# Gal6S(b1-4)GlcNAc = target: Gal6S(b1-4)GlcNAc
# How it was run: as §1
# Gal6S(b1-4)GlcNAc6S = target: Gal6S(b1-4)GlcNAc6S
# How it was run: as §1
# GalNAc(a1-3)Gal = target: GalNAc(a1-3)Gal
# How it was run: as §1
# GalNAc(a1-3)GalNAc = target: GalNAc(a1-3)GalNAc
# How it was run: as §1
# [5] = target: GalNAc(a1-3)GalNAc(a1-3)Gal(a1-4)Gal(b1-4)GlcNAc
# How it was run: as §1
# GalNAc(b1-3)Gal = target: GalNAc(b1-3)Gal
# How it was run: as §1
# [6] = target: GalNAc(b1-3)Gal(a1-4)Gal(b1-4)GlcNAc
# How it was run: as §1
# [7] = target: GalNAc(b1-3)Gal(a1-4)Gal(b1-4)GlcNAc(b1-3)Gal(b1-4)Glc
# How it was run: as §1
# [8] = target: GalNAc(b1-3)Gal(a1-6)Gal(b1-4)Glc
# How it was run: as §1
# GalNAc(b1-3)GalNAc = target: GalNAc(b1-3)GalNAc
# How it was run: as §1
# GalNAc(b1-4)GlcNAc = target: GalNAc(b1-4)GlcNAc
# How it was run: as §1
# [9] = target: GalNAc(b1-4)GlcNAc(b1-2)Man(a1-3)[GalNAc(b1-4)GlcNAc(b1-2)Man(a1-6)]Man(b1-4)GlcNAc(b1-4)GlcNAc
# How it was run: as §1
# Glc(a1-4)Glc = target: Glc(a1-4)Glc
# How it was run: as §1
# Glc(a1-6)Glc(a1-6)Glc = target: Glc(a1-6)Glc(a1-6)Glc
# How it was run: as §1
# Glc(b1-4)Glc = target: Glc(b1-4)Glc
# How it was run: as §1
# Glc(b1-6)Glc = target: Glc(b1-6)Glc
# How it was run: as §1
# GlcA(b1-3)Gal = target: GlcA(b1-3)Gal
# How it was run: as §1
# GlcA(b1-3)GlcNAc = target: GlcA(b1-3)GlcNAc
# How it was run: as §1
# GlcA(b1-6)Gal = target: GlcA(b1-6)Gal
# How it was run: as §1
# [10] = target: GlcNAc(a1-3)Gal(b1-4)GlcNAc
# How it was run: as §1
# [11] = target: GlcNAc(a1-4)Gal(b1-3)GlcNAc
# How it was run: as §1
binder,measurement,setting,value
B1,glycan array binding signal (z-score),[1],-0.171
same,glycan array binding signal (z-score),Gal3S(b1-3)GalNAc,-0.183
same,glycan array binding signal (z-score),Gal3S(b1-3)GlcNAc,-0.137
same,glycan array binding signal (z-score),[2],-0.132
same,glycan array binding signal (z-score),Gal3S(b1-4)Glc,-0.171
same,glycan array binding signal (z-score),Gal3S(b1-4)Glc6S,-0.12
same,glycan array binding signal (z-score),Gal3S(b1-4)GlcNAc,-0.178
same,glycan array binding signal (z-score),Gal3S(b1-4)GlcNAc6S,-0.155
same,glycan array binding signal (z-score),[3],-0.095
same,glycan array binding signal (z-score),[4],0.027
same,glycan array binding signal (z-score),Gal3S4S(b1-4)GlcNAc,-0.171
same,glycan array binding signal (z-score),Gal3S6S(b1-4)GlcNAc,-0.152
same,glycan array binding signal (z-score),Gal3S6S(b1-4)GlcNAc6S,-0.126
same,glycan array binding signal (z-score),Gal4S(b1-4)GlcNAc,-0.188
same,glycan array binding signal (z-score),Gal4S6S(b1-4)GlcNAc,-0.08
same,glycan array binding signal (z-score),Gal6S(b1-4)Glc,-0.122
same,glycan array binding signal (z-score),Gal6S(b1-4)Glc6S,-0.007
same,glycan array binding signal (z-score),Gal6S(b1-4)GlcNAc,-0.138
same,glycan array binding signal (z-score),Gal6S(b1-4)GlcNAc6S,-0.144
same,glycan array binding signal (z-score),GalNAc(a1-3)Gal,-0.136
same,glycan array binding signal (z-score),GalNAc(a1-3)GalNAc,-0.083
same,glycan array binding signal (z-score),[5],-0.145
same,glycan array binding signal (z-score),GalNAc(b1-3)Gal,-0.194
same,glycan array binding signal (z-score),[6],-0.187
same,glycan array binding signal (z-score),[7],-0.149
same,glycan array binding signal (z-score),[8],-0.194
same,glycan array binding signal (z-score),GalNAc(b1-3)GalNAc,-0.142
same,glycan array binding signal (z-score),GalNAc(b1-4)GlcNAc,-0.188
same,glycan array binding signal (z-score),[9],6.19
same,glycan array binding signal (z-score),Glc(a1-4)Glc,-0.211
same,glycan array binding signal (z-score),Glc(a1-6)Glc(a1-6)Glc,-0.147
same,glycan array binding signal (z-score),Glc(b1-4)Glc,-0.134
same,glycan array binding signal (z-score),Glc(b1-6)Glc,-0.128
same,glycan array binding signal (z-score),GlcA(b1-3)Gal,-0.135
same,glycan array binding signal (z-score),GlcA(b1-3)GlcNAc,0.014
same,glycan array binding signal (z-score),GlcA(b1-6)Gal,-0.152
same,glycan array binding signal (z-score),[10],-0.169
same,glycan array binding signal (z-score),[11],-0.196
